This is one part of the list.
What was measured:
Experiment in all cases: glycan array binding signal (z-score within array); higher = stronger binding
Details in all cases: glycan notation: IUPAC condensed, linker removed
[1] = molecular target: GlcNAc(a1-6)Gal(b1-4)GlcNAc
In short: (§1)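 Glycan array data were curated from 3228 arrays in the Consortium for Functional Glycomics database and kept only where the protein sequence was available. Glycan names were converted to IUPAC-condensed notation, and columns mapping to the same glycan were averaged. The binding signal is a within-array Z-score, averaged across arrays of the same protein sequence at different concentrations or buffers and across linkers. Negative Z-scores can be read as non-binding.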

[2] = molecular target: GlcNAc(b1-2)Gal(b1-3)GalNAc
In short: as §1

[3] = molecular target: GlcNAc(b1-2)Man(a1-3)[GlcNAc(b1-2)Man(a1-6)]Man(b1-4)GlcNAc(b1-4)GlcNAc
In short: as §1

[4] = molecular target: GlcNAc(b1-2)Man(a1-3)[GlcNAc(b1-2)Man(a1-6)]Man(b1-4)GlcNAc(b1-4)[Fuc(a1-6)]GlcNAc
In short: as §1

[5] = molecular target: GlcNAc(b1-2)Man(a1-3)[GlcNAc(b1-4)][GlcNAc(b1-2)Man(a1-6)]Man(b1-4)GlcNAc(b1-4)GlcNAc
In short: as §1

[6] = molecular target: GlcNAc(b1-2)Man(a1-3)[GlcNAc(b1-4)][GlcNAc(b1-2)Man(a1-6)]Man(b1-4)GlcNAc(b1-4)[Fuc(a1-6)]GlcNAc
In short: as §1

[7] = molecular target: GlcNAc(b1-2)[GlcNAc(b1-4)]Man(a1-3)[GlcNAc(b1-2)Man(a1-6)]Man(b1-4)GlcNAc(b1-4)GlcNAc
In short: as §1

[8] = molecular target: GlcNAc(b1-2)[GlcNAc(b1-4)]Man(a1-3)[GlcNAc(b1-4)][GlcNAc(b1-2)Man(a1-6)]Man(b1-4)GlcNAc(b1-4)GlcNAc
In short: as §1

[9] = molecular target: GlcNAc(b1-2)[GlcNAc(b1-4)]Man(a1-3)[GlcNAc(b1-4)][GlcNAc(b1-2)[GlcNAc(b1-6)]Man(a1-6)]Man(b1-4)GlcNAc(b1-4)GlcNAc
In short: as §1

[10] = molecular target: GlcNAc(b1-2)[GlcNAc(b1-4)]Man(a1-3)[GlcNAc(b1-4)][GlcNAc(b1-2)[GlcNAc(b1-6)]Man(a1-6)]Man(b1-4)GlcNAc(b1-4)[Fuc(a1-6)]GlcNAc
In short: as §1

[11] = molecular target: GlcNAc(b1-2)[GlcNAc(b1-6)]Man(a1-6)[GlcNAc(b1-2)Man(a1-3)]Man(b1-4)GlcNAc(b1-4)GlcNAc
In short: as §1

[12] = molecular target: GlcNAc(b1-2)[GlcNAc(b1-6)]Man(a1-6)[GlcNAc(b1-2)Man(a1-3)]Man(b1-4)GlcNAc(b1-4)[Fuc(a1-6)]GlcNAc
In short: as §1

[13] = molecular target: GlcNAc(b1-2)[GlcNAc(b1-6)]Man(a1-6)[GlcNAc(b1-4)][GlcNAc(b1-2)Man(a1-3)]Man(b1-4)GlcNAc(b1-4)GlcNAc
In short: as §1

[14] = molecular target: GlcNAc(b1-3)Fuc
In short: as §1

[15] = molecular target: GlcNAc(b1-3)Gal
In short: as §1

[16] = molecular target: GlcNAc(b1-3)Gal(b1-3)GalNAc
In short: as §1

[17] = molecular target: GlcNAc(b1-3)Gal(b1-4)Glc
In short: as §1

[18] = molecular target: GlcNAc(b1-3)Gal(b1-4)GlcNAc
In short: as §1

[19] = molecular target: GlcNAc(b1-3)Gal(b1-4)GlcNAc(b1-2)Man(a1-3)[GlcNAc(b1-3)Gal(b1-4)GlcNAc(b1-2)Man(a1-6)]Man(b1-4)GlcNAc(b1-4)GlcNAc
In short: as §1

[20] = molecular target: GlcNAc(b1-3)Gal(b1-4)GlcNAc(b1-2)Man(a1-3)[GlcNAc(b1-3)Gal(b1-4)GlcNAc(b1-2)Man(a1-6)]Man(b1-4)GlcNAc(b1-4)[Fuc(a1-6)]GlcNAc
In short: as §1

[21] = molecular target: GlcNAc(b1-3)Gal(b1-4)GlcNAc(b1-2)[GlcNAc(b1-3)Gal(b1-4)GlcNAc(b1-6)]Man(a1-6)[GlcNAc(b1-3)Gal(b1-4)GlcNAc(b1-2)Man(a1-3)]Man(b1-4)GlcNAc(b1-4)GlcNAc
In short: as §1

[22] = molecular target: GlcNAc(b1-3)Gal(b1-4)GlcNAc(b1-3)Gal(b1-4)GlcNAc
In short: as §1

[23] = molecular target: GlcNAc(b1-3)Gal(b1-4)GlcNAc(b1-3)Gal(b1-4)GlcNAc(b1-2)Man(a1-3)[GlcNAc(b1-3)Gal(b1-4)GlcNAc(b1-3)Gal(b1-4)GlcNAc(b1-2)Man(a1-6)]Man(b1-4)GlcNAc(b1-4)GlcNAc
In short: as §1

[24] = molecular target: GlcNAc(b1-3)Gal(b1-4)GlcNAc(b1-3)Gal(b1-4)GlcNAc(b1-2)Man(a1-3)[GlcNAc(b1-3)Gal(b1-4)GlcNAc(b1-3)Gal(b1-4)GlcNAc(b1-2)Man(a1-6)]Man(b1-4)GlcNAc(b1-4)[Fuc(a1-6)]GlcNAc
In short: as §1

[25] = molecular target: GlcNAc(b1-3)Gal(b1-4)GlcNAc(b1-3)Gal(b1-4)GlcNAc(b1-2)[GlcNAc(b1-3)Gal(b1-4)GlcNAc(b1-3)Gal(b1-4)GlcNAc(b1-6)]Man(a1-6)[GlcNAc(b1-3)Gal(b1-4)GlcNAc(b1-3)Gal(b1-4)GlcNAc(b1-2)Man(a1-3)]Man(b1-4)GlcNAc(b1-4)[Fuc(a1-6)]GlcNAc
In short: as §1

[26] = molecular target: GlcNAc(b1-3)Gal(b1-4)GlcNAc(b1-3)Gal(b1-4)GlcNAc(b1-3)Gal(b1-4)GlcNAc(b1-2)Man(a1-3)[GlcNAc(b1-3)Gal(b1-4)GlcNAc(b1-3)Gal(b1-4)GlcNAc(b1-3)Gal(b1-4)GlcNAc(b1-2)Man(a1-6)]Man(b1-4)GlcNAc(b1-4)GlcNAc
In short: as §1

[27] = molecular target: GlcNAc(b1-3)Gal(b1-4)GlcNAc(b1-3)Gal(b1-4)GlcNAc(b1-3)Gal(b1-4)GlcNAc(b1-2)Man(a1-3)[GlcNAc(b1-3)Gal(b1-4)GlcNAc(b1-3)Gal(b1-4)GlcNAc(b1-3)Gal(b1-4)GlcNAc(b1-2)Man(a1-6)]Man(b1-4)GlcNAc(b1-4)[Fuc(a1-6)]GlcNAc
In short: as §1

[28] = molecular target: GlcNAc(b1-3)Gal(b1-4)GlcNAc(b1-3)Gal(b1-4)GlcNAc(b1-3)Gal(b1-4)GlcNAc(b1-2)[GlcNAc(b1-3)Gal(b1-4)GlcNAc(b1-3)Gal(b1-4)GlcNAc(b1-3)Gal(b1-4)GlcNAc(b1-6)]Man(a1-6)[GlcNAc(b1-3)Gal(b1-4)GlcNAc(b1-3)Gal(b1-4)GlcNAc(b1-3)Gal(b1-4)GlcNAc(b1-2)Man(a1-3)]Man(b1-4)GlcNAc(b1-4)[Fuc(a1-6)]GlcNAc
In short: as §1

[29] = molecular target: GlcNAc(b1-3)Gal(b1-4)GlcNAc(b1-3)Gal(b1-4)GlcNAc(b1-3)Gal(b1-4)GlcNAc(b1-3)Gal(b1-4)GlcNAc(b1-2)Man(a1-3)[GlcNAc(b1-3)Gal(b1-4)GlcNAc(b1-3)Gal(b1-4)GlcNAc(b1-3)Gal(b1-4)GlcNAc(b1-3)Gal(b1-4)GlcNAc(b1-2)Man(a1-6)]Man(b1-4)GlcNAc(b1-4)GlcNAc
In short: as §1

[30] = molecular target: GlcNAc(b1-3)Gal(b1-4)GlcNAc(b1-3)Gal(b1-4)GlcNAc(b1-3)Gal(b1-4)GlcNAc(b1-3)Gal(b1-4)GlcNAc(b1-2)Man(a1-3)[GlcNAc(b1-3)Gal(b1-4)GlcNAc(b1-3)Gal(b1-4)GlcNAc(b1-3)Gal(b1-4)GlcNAc(b1-3)Gal(b1-4)GlcNAc(b1-2)Man(a1-6)]Man(b1-4)GlcNAc(b1-4)[Fuc(a1-6)]GlcNAc
In short: as §1

[31] = molecular target: GlcNAc(b1-3)Gal(b1-4)GlcNAc(b1-3)Gal(b1-4)GlcNAc(b1-3)Gal(b1-4)GlcNAc(b1-3)Gal(b1-4)GlcNAc(b1-2)[GlcNAc(b1-3)Gal(b1-4)GlcNAc(b1-3)Gal(b1-4)GlcNAc(b1-3)Gal(b1-4)GlcNAc(b1-3)Gal(b1-4)GlcNAc(b1-6)]Man(a1-6)[GlcNAc(b1-3)Gal(b1-4)GlcNAc(b1-3)Gal(b1-4)GlcNAc(b1-3)Gal(b1-4)GlcNAc(b1-3)Gal(b1-4)GlcNAc(b1-2)Man(a1-3)]Man(b1-4)GlcNAc(b1-4)[Fuc(a1-6)]GlcNAc
In short: as §1

[32] = molecular target: GlcNAc(b1-3)Gal(b1-4)GlcNAc(b1-3)Gal(b1-4)GlcNAc(b1-3)GalNAc
In short: as §1

[33] = molecular target: GlcNAc(b1-3)Gal(b1-4)GlcNAc(b1-3)GalNAc
In short: as §1

[34] = molecular target: GlcNAc(b1-3)Gal(b1-4)GlcNAc(b1-3)[GlcNAc(b1-3)Gal(b1-4)GlcNAc(b1-3)]GalNAc
In short: as §1

[35] = molecular target: GlcNAc(b1-3)Gal(b1-4)GlcNAc(b1-6)[Gal(b1-3)]GalNAc
In short: as §1

[36] = molecular target: GlcNAc(b1-3)Gal(b1-4)GlcNAc(b1-6)[GlcNAc(b1-3)Gal(b1-3)]GalNAc
In short: as §1

[37] = molecular target: GlcNAc(b1-3)Gal(b1-4)GlcNAc(b1-6)[GlcNAc(b1-3)]Gal(b1-4)GlcNAc
In short: as §1

B1: CC1G-11630 (Coprinopsis cinerea), A8P462 (protein)
chain: MTTEAKIKLKAVVYWELVFDYDNSSNTGEITQSYTVKISQTSTRSTFASEVSTTTIDTLTKNNQEVDVGASYGAISANVSASWEHSEEVNNMLEKTTQTSTEDTYTVETEETRSYTIGPGGMLSLFQKHFSGPGMHVAFDVFTTDLELAKERTEIDIDVDVEAIRFVREIRVVYTDIMSEAPGDHVREINGKNPDINYGFNGKFVWLVPEQTRKTAQALTNVEFVSQAESDDRYWDLAAGAGGSNRYLIPVYDTNNKDKIYELALWRSDSYITHDKVKAAGWSGTTGDINSGRGGTYLNLVWKTRHAY
[1]
  glycan array binding signal (z-score): -0.919
[2]
  glycan array binding signal (z-score): -0.697
[3]
  glycan array binding signal (z-score): -0.24
[4]
  glycan array binding signal (z-score): -0.33
[5]
  glycan array binding signal (z-score): -0.294
[6]
  glycan array binding signal (z-score): -0.482
[7]
  glycan array binding signal (z-score): -0.331
[8]
  glycan array binding signal (z-score): -0.368
[9]
  glycan array binding signal (z-score): -0.201
[10]
  glycan array binding signal (z-score): -0.568
[11]
  glycan array binding signal (z-score): 0.438
[12]
  glycan array binding signal (z-score): -0.255
[13]
  glycan array binding signal (z-score): -0.34
[14]
  glycan array binding signal (z-score): -0.237
[15]
  glycan array binding signal (z-score): -0.55
[16]
  glycan array binding signal (z-score): -0.011
[17]
  glycan array binding signal (z-score): 0.086
[18]
  glycan array binding signal (z-score): -0.538
[19]
  glycan array binding signal (z-score): -0.302
[20]
  glycan array binding signal (z-score): -0.213
[21]
  glycan array binding signal (z-score): 0.403
[22]
  glycan array binding signal (z-score): -0.434
[23]
  glycan array binding signal (z-score): 0.966
[24]
  glycan array binding signal (z-score): 0.444
[25]
  glycan array binding signal (z-score): 0.215
[26]
  glycan array binding signal (z-score): 1.07
[27]
  glycan array binding signal (z-score): 0.356
[28]
  glycan array binding signal (z-score): -0.15
[29]
  glycan array binding signal (z-score): 0.121
[30]
  glycan array binding signal (z-score): -0.379
[31]
  glycan array binding signal (z-score): 5.85
[32]
  glycan array binding signal (z-score): -0.179
[33]
  glycan array binding signal (z-score): -0.369
[34]
  glycan array binding signal (z-score): -0.549
[35]
  glycan array binding signal (z-score): -0.33
[36]
  glycan array binding signal (z-score): -0.296
[37]
  glycan array binding signal (z-score): -0.443

From the supplement of paper PMC8728848
